Assay results published in PubChem BioAssay AID1240 (Sanford-Burnham Center for Chemical Genomics, 2008).
Hit rate of the full screen: of about 50,000 compounds, about 800 (1.6%) showed an effect of 50% or more. Some of the results follow.

biological target: Bcl-2-like protein 10 (Homo sapiens) (UniProt Q9HD36); experiment: TR3 peptide-Bcl-B binding displacers, biochemical primary FP assay, phenotype converters (AID 1240); conditions: GST-Bcl-B / FITC-TR3 peptide fluorescence polarization; stronger effect = higher value; compound at 3.75 mg/L;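 further: 0% = Bcl-B with tracer peptide and DMSO and 100% = tracer peptide lacking Bcl-B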
Sequence of UniProt Q9HD36 (Q9HD36 whole entry, looked up): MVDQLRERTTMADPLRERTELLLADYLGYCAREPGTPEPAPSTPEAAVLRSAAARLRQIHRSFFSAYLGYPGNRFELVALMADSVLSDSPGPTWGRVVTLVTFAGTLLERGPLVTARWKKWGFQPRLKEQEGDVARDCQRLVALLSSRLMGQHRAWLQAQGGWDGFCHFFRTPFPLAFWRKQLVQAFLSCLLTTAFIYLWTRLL

| Compound | displacement [%] |
| --- | --- |
| CC(=O)c1c(C)oc2c1cc(OC(=O)c1ccco1)c1ccccc12 | 18.6 |
| CCN(CC)c1ccc(/C=C2\SC(N)=NC2=O)c(OCc2ccc(Cl)cc2)c1 | -13.7 |
| O=C(COc1ccccc1Cl)Nc1ccc2nn(-c3ccccc3)nc2c1 | 78.4 |
| CC1(C)CC(=O)C2=C(C1)Nc1ccccc1NC2c1cccc2ccccc12 (stereo unspecified) | 23.3 |
| C=C(C)c1cccc(C(C)(C)NC(=O)NCCc2ccccc2)c1 | 14 |
| O=C(c1ccc(Cl)cc1[N+](=O)[O-])N1CCN(Cc2ccccc2)CC1 | 1.1 |
| COc1cccc(C(=O)N2CCN(Cc3cccc(Cl)c3)CC2)c1 | -10.4 |
| N#C/C(=C/c1cccc(Cl)c1)C(=O)Nc1cccc(Br)c1 | -10.3 |
| CCN(CC)CCCOc1ccccc1[N+](=O)[O-] | 5.8 |
| N#C/C(=C\c1cccc(F)c1)c1nc(-c2ccc([N+](=O)[O-])cc2)cs1 | 8.5 |
| CC(=O)Nc1ccccc1C(=O)N1CCC(Cc2ccccc2)CC1 | 15.8 |
| Cc1cccc(NC2=C(Cl)C(=O)N(c3cccc(Cl)c3Cl)C2=O)c1 | 14.4 |
| O=c1[nH]c2ccc(Cl)cc2c(-c2ccccc2)c1Sc1nc2ccccc2[nH]1 | -11.5 |
| O=C1NC(=S)S/C1=C\c1ccc(O)c(O)c1 | -1.6 |
| Clc1cccc(OCCOCCN2CCOCC2)c1Cl | -8 |
| Cc1cc(C=C2C(=O)c3ccccc3C2=O)c(-c2ccccc2)n1-c1ccccc1 | 68 |
| COc1ccc(N2C(=O)C(Cl)=C(Nc3cc(OC)ccc3OC)C2=O)cc1 | -2.5 |
| CCOC(=O)C(O)(c1ccc(N(CC)CC)cc1)C(F)(F)F (stereo unspecified) | 3.9 |
| Cc1cccc(N2C(=O)/C(=C/c3ccc(C(=O)O)cc3)SC2=S)c1C | 0.5 |
| CC1(C)CC(=O)C2=C(C1)OC1=C(C(=O)CC(C)(C)C1)C2c1cc2c(cc1Cl)OCO2 | 7.2 |
| CCc1ccc(NC(=O)C2CCCCC2)cc1 | -5.9 |
| O=C(O)CCCCCN1C(=O)C(O)=C(C(=O)/C=C/c2ccccc2)C1c1ccccc1Cl (stereo unspecified) | -7.2 |

| Compound | displacement [%] |
| --- | --- |
| CC(NC(=O)C(=O)NCC1CCNCC1)c1ccccc1 (stereo unspecified) | 8.8 |
| CC(=O)ON=C1c2cc(S(=O)(=O)N(C)C)ccc2-c2ccc(S(=O)(=O)N(C)C)cc21 | 12.1 |
| CCOC(=O)c1c(NC(=O)c2ccccc2F)sc(C(=O)Nc2cc(C(F)(F)F)ccc2Cl)c1C | 7.7 |
| O=C(CN1C(=O)/C(=C\c2ccccc2Cl)SC1=S)Nc1cc(Cl)ccc1O | -6.4 |
| CN(C)CCCNC(=O)c1ccc(N(C)S(=O)(=O)c2ccccc2)cc1 | -13.4 |
| COc1ccc(C=NCC2COc3ccccc3O2)cc1OC (stereo unspecified) | 4.8 |
| Cc1noc2c1/C(=N\O)CC(c1ccccc1)C2 (stereo unspecified) | 2.6 |
| Cc1ccc(/C=N/c2nc3ccc(Br)cc3n2C)c(O)c1 | -3.5 |
| O=C(CSc1ccccn1)N/N=C\c1c[nH]c2ccccc12 | 3.9 |
| COc1cc(-c2nc(-c3ccccc3)c(-c3cc([N+](=O)[O-])ccc3C)[nH]2)cc(OC)c1OC | 3.5 |
| COc1cccc(/C=N/NC(=O)CSc2nnc(-c3ccccc3)n2-c2ccccc2)c1OC | 1 |
| COc1ccc(/C=C\C(=O)c2c(-c3ccccc3)c3cc(C)ccc3[nH]c2=O)c(OC)c1 | -16 |
| COc1ccc(CC(C)(C)NC(=O)c2ccccc2)cc1 | 10.1 |
| CCOc1cc(/C=C2/SC(=S)N(C)C2=O)ccc1OS(=O)(=O)c1ccc(C)cc1 | -1.9 |
| Cc1ccc(N(CC(=O)NCCSc2ccccn2)S(C)(=O)=O)cc1 | 15 |
| CC1=CC(=O)C=C/C1=N\S(=O)(=O)c1ccc(C)cc1 | 17.2 |
| O=c1[nH]c(=O)n(-c2ccccc2F)c(O)c1C=Nc1ccc(Cl)cc1 | -1.4 |
| CCc1ccc(OCCCCCN(CC)CC)cc1 | 5.7 |
| CCOC(=O)c1c(NC(=O)c2cc(OC)c(OC)c(OC)c2)sc(C(N)=O)c1C | -14.6 |
| COc1ccc(OCC(=O)Nc2c(C)n(C)n(-c3ccccc3)c2=O)cc1 | 7.3 |
| C=CCOc1c(Cl)cc(/C=C2\C(=O)NC(=O)N(c3cc(C)cc(C)c3)C2=O)cc1OC | -13.9 |
| O=C1CC(N2CCSCC2)C(=O)N1c1ccc(S(=O)(=O)N2CCOCC2)cc1 (stereo unspecified) | 37.9 |

| Compound | displacement [%] |
| --- | --- |
| C=CCn1c(CCCN2C(=O)c3cccc4cccc(c34)C2=O)nnc1SCC(=O)OCC | 0.6 |
| COc1ccccc1NC(=O)CC1S/C(=N\N=C(/C)c2cccc(NC(C)=O)c2)NC1=O (stereo unspecified) | 3.3 |
| O=c1[nH]c2ccc(Br)cc2c(-c2ccccc2)c1C1=NNC(c2ccc([N+](=O)[O-])cc2)C1 (stereo unspecified) | -6.6 |
| O=C(c1ccccc1Br)N1N=C(c2ccccc2)CC1(O)C(F)(F)F (stereo unspecified) | 7.1 |
| O=C(Nc1ccc(Br)cc1C(=O)O)c1cccs1 | 4.2 |
| O=C1c2ccccc2C(=O)C12OC(c1ccc(Cl)cc1)C1(C(=O)c3ccccc3C1=O)C2c1ccc(F)cc1 (stereo unspecified) | 1.7 |
| C=CCC1(C#N)C(SC)=NC2=C(C(=O)CC(C)(C)C2)C1c1ccccc1 (stereo unspecified) | -3.5 |
| COc1ccc(CC(=O)NCc2ccc(F)cc2)cc1OC | 3.3 |
| O=C(Nc1ccc(Br)cc1)C1CCCN1S(=O)(=O)c1ccc(Cl)cc1 (stereo unspecified) | 19 |
| N/C(=N\OC(=O)COc1ccc2ccccc2c1)c1ccncc1 | -2.5 |
| O=C1c2ccccc2C(=O)N1CSc1nnc2c(n1)[nH]c1ccccc12 | -8.9 |
| CC1=NN(C(=O)c2cocc2C)C(O)(C(F)(F)F)C1 (stereo unspecified) | 10.3 |
| C=CCOc1ccc(/C=C2\C(=O)NC(=O)N(c3ccc(Br)cc3)C2=O)cc1OC | -13.2 |
| CCOC(=O)/C(C#N)=C\c1cccn1C | -6.7 |
| Cc1ccc(S(=O)(=O)N(CC(O)CN(C)C)c2cccc3ccccc23)cc1 (stereo unspecified) | 1.1 |
| CCN(c1ccccc1)S(=O)(=O)c1cc(Cl)ccc1Cl | -10.9 |
| CN1C(=O)C(=Cc2ccc(-c3cccc(Cl)c3Cl)o2)C(=O)N(C)C1=O | 4.6 |
| Cc1ccccc1/C(=C1\OC(=O)c2ccccc21)[N+](=O)[O-] | -6 |
| COc1ccc(/C=C2\SC(=S)N(C(C)C)C2=O)cc1 | -3.9 |
| CCOc1cc([N+](=O)[O-])ccc1NC(C)=O | 2.2 |
| CCOC(=O)C(=O)N1CCN(c2ccccc2OC)CC1 | -1.6 |
| CCN=C(Nc1cc(Cl)cc(Cl)c1)SC1CC(=O)N(c2cccc(OC)c2)C1=O (stereo unspecified) | 14.3 |

| Compound | displacement [%] |
| --- | --- |
| Cc1c(C(=O)Nc2ccc3oc(-c4ccccc4Br)nc3c2)cccc1[N+](=O)[O-] | -9.9 |
| CCCOC(=O)c1ccc(NC(=O)c2ccc(C)c([N+](=O)[O-])c2)cc1 | 7.5 |
| Cc1cc(NC(=O)c2c(-c3c(Cl)cccc3Cl)noc2C)ccc1Br | -10.1 |
| c1ccc2cc(OCCCN3CCCC3)ccc2c1 | 6.9 |
| O=C1NC(=S)S/C1=C\c1ccc(-c2ccc(Cl)c(C(=O)O)c2)o1 | -91.6 |
| CC1CN(C(=O)Cc2ccccc2[N+](=O)[O-])CC(C)O1 (stereo unspecified) | -2.4 |
| CCOc1ccccc1/C=C1/C(=O)NN(c2ccc(I)cc2)C1=O | 7.5 |
| O=C1C(=O)N(c2cccc(C(F)(F)F)c2)C(c2ccc([N+](=O)[O-])cc2)/C1=C(/O)c1ccccc1 (stereo unspecified) | -2.3 |
| CCOC(=O)c1c(NC(=O)c2cc(Br)ccc2OC)sc2c1CCCC2 | 4.5 |
| Cc1ccc(/C(=N\S(=O)(=O)c2cccc([N+](=O)[O-])c2)Nc2ccccc2)cc1 | 13.2 |
| O=C(Nc1ccc(Cl)c(Cl)c1)c1ccc(Cl)cc1Cl | 1.4 |
| NS(=O)(=O)c1cccc(NC(=O)COc2ccc([N+](=O)[O-])cc2)c1 | -4.7 |
| CC(C)CNC(=O)CN(c1ccc(Cl)cc1)S(C)(=O)=O | 15 |
| N#Cc1c(N)[nH]c(=S)c(C#N)c1-c1cccc([N+](=O)[O-])c1 | -7.9 |
| CCC(C)OC(=O)C1=C(C)NC(=O)NC1c1cccc(Br)c1 (stereo unspecified) | -1.4 |
| Nc1cc(-c2cccc(Br)c2)nn1Cc1ccccc1 | -15.6 |
| COC(=O)c1ccc(NS(=O)(=O)c2ccc(C)cc2)cc1 | -7.9 |
| O=C(NC(c1ccccc1)c1ccccc1)c1ccccc1C(F)(F)F | -6.4 |
| CCOC(=O)C1=C(C)N=c2s/c(=C\c3ccc(OC)cc3)c(=O)n2C1/C=C/c1ccccc1 (stereo unspecified) | 12 |
| COc1ccc(OC)c(N2C(=O)NC(=O)/C(=C/C=C/c3ccccc3)C2=O)c1 | 37.4 |
| CCc1ccc(NCCC(=O)c2ccc(Br)cc2)cc1 | 10.6 |
| CCOc1ccc(N2C(=O)NC(=O)/C(=C\c3ccccc3OC)C2=O)cc1 | -0.4 |

| Compound | displacement [%] |
| --- | --- |
| CCOC(=O)c1c(NC(=O)CN2CCOCC2)sc2c1CCC/C2=N\O | -6.6 |
| COc1ccc(/C=C/C(=O)c2ccc([N+](=O)[O-])cc2)s1 | -4.2 |
| Cc1cccc(C)c1OCC(=O)NN=Cc1ccc(O)cc1 | -6.4 |
| CCOc1ccc(/C=C/C(=O)c2ccc(Br)cc2)cc1 | 13.6 |
| CCN1C(=O)/C(=C/C2CC=CCC2)SC1=S (stereo unspecified) | 11.2 |
| COc1ccccc1/C=N\Nc1nc(-c2ccccc2)cc(-c2ccccc2)n1 | 4.5 |
| O=C(Nc1ccc(Cl)c(Cl)c1)Nc1nnc(/C=C/c2ccccc2)s1 | 30.5 |
| O=C1NC(=O)N(c2ccc(Cl)cc2)C(=O)/C1=C\C=C\c1ccco1 | -27 |
| Nc1ccc2c(c1)C(=O)c1ccccc1C2=O | 6.9 |
| O=C(CN1C(=O)/C(=C/c2ccccc2F)SC1=S)Nc1cccc(O)c1 | 18.2 |
| O=C(NCCSCc1ccccc1)c1ccccc1Cl | -1.3 |
| O=C1NN(c2ccc(Cl)c(Cl)c2)C(=O)/C1=C/c1cc([N+](=O)[O-])ccc1O | -1.6 |
| Cc1ccc[n+](CC(=O)c2ccc(N3C(=O)c4ccccc4C3=O)cc2)c1 | -0.2 |
| Cc1ccc(CN2CCN(/N=C/c3ccc(C)s3)CC2)cc1 | 14.9 |
| Cc1ccc(CNC(=O)C(=O)NCc2ccncc2)cc1 | 7.8 |
| Cc1ccsc1C1CC(=O)NC(SCc2ccccc2)=C1C#N (stereo unspecified) | -5.9 |
| CC(C)(C)C(=O)COc1cc2oc(=O)cc(-c3ccccc3)c2cc1Cl | -1.9 |
| CS(=O)(=O)N(Cc1ccc(Cl)cc1)c1ccc(C(=O)O)cc1 | 10.9 |
